Among the data in the antibiotic and cytotoxicity screens of Wong et al. (2023) are growth inhibition call values, retold here.

The other results are listed elsewhere or left out.

This experiment has as its system S. aureus RN4220. Nature of the experiment: growth inhibition call (relative growth <= 0.2). The note with it: 50 µM.
As for `COc1ccnc(CS(=O)c2nc3cc(OC(F)F)ccc3[nH]2)c1OC` (stereo unspecified), the growth inhibition call was “inactive”.

On to `c1ccc2nc(-c3cn[nH]c3)ccc2c1`, for which the growth inhibition call was “inactive”.

On to `C[C@H]1CN([C@@H](C)CO)C(=O)Cc2cc(NS(=O)(=O)c3cn(C)cn3)ccc2O[C@@H]1CN(C)S(=O)(=O)c1ccc(Cl)cc1`, for which the growth inhibition call is “inactive”. Consider `COCC#Cc1cnc2c(c1)C(=O)N([C@H](C)CO)C[C@H](C)[C@H](CN(C)C(=O)Nc1ccc(OC)cc1)O2`, for which the growth inhibition call is “inactive”. Turning to `COc1ccc(S(=O)(=O)N(C)C[C@@H]2Oc3c(NC(=O)c4ccncc4)cccc3C(=O)N([C@H](C)CO)C[C@@H]2C)cc1`, the growth inhibition call is “inactive”. For `NC(=O)N1CCC(CC(=O)N2CCC([C@H]3c4ncc(Br)cc4CCc4cc(Cl)cc(Br)c43)CC2)CC1` the value was “inactive”; for `O=C(C[C@@H]1C[C@@H]2c3cc(NC(=O)Nc4ccccc4F)ccc3O[C@@H]2[C@H](CO)O1)NCc1ccc(Oc2ccccc2)cc1`, “inactive”; for `COc1ccc(NC(=O)Nc2ccc3c(c2)C(=O)N([C@@H](C)CO)C[C@@H](C)[C@@H](CN(C)S(=O)(=O)c2ccc(Cl)cc2)OCCCC[C@@H](C)O3)cc1`, “inactive”. For `O=C(C[C@@H]1CC[C@@H]2[C@H](COC[C@@H](O)CN2S(=O)(=O)c2ccccc2)O1)NCCN1CCCCC1` the value was “inactive”; for `CS(=O)(=O)N1[C@@H]2Cn3c(cccc3=O)[C@H]1[C@@H](C(=O)NCc1ccccc1)[C@@H]2CO`, “inactive”. The same measure for `Cc1noc(C)c1S(=O)(=O)N(C)C[C@@H]1Oc2ccc(NC(=O)C3CCCCC3)cc2CC(=O)N([C@H](C)CO)C[C@H]1C`: “inactive”; for `CCCNC(=O)N(C)C[C@@H]1Oc2cc(C#Cc3ccccn3)ccc2S(=O)(=O)N([C@@H](C)CO)C[C@H]1C`: “inactive”; for `C[C@H](CO)N1C[C@H](C)[C@@H](CN(C)C(=O)NC2CCCCC2)OCCCC[C@H](C)Oc2ccc(NC(=O)C3CCCCC3)cc2C1=O`: “inactive”. Regarding `C[C@H](CO)N1C[C@H](C)[C@H](CN(C)S(=O)(=O)c2ccccc2)Oc2ccc(NC(=O)CCC(F)(F)F)cc2CC1=O`, the growth inhibition call is “inactive”. The same measure for `COc1cc(N)ccc1N1CCCS1(=O)=O`: “inactive”; for `N=C(N)NCc1cn(CC(=O)N2CCN(c3ccccc3)CC2)nn1`: “inactive”. Regarding `Cc1sc2ncnc(N3CCC(Cn4cc(C(C)(C)N)nn4)CC3)c2c1C`, the growth inhibition call was “inactive”. For `O=C1NC(=O)C2(CCCCC2)N1` the value was “inactive”; for `C[C@@H]1CCCCO[C@@H](CN(C)C(=O)Nc2cccc3ccccc23)[C@H](C)CN([C@H](C)CO)C(=O)c2cc(NS(=O)(=O)c3ccc(Cl)cc3)ccc2O1`, “inactive”. The same measure for `C[C@@H]1CCCCO[C@@H](CN(C)C(=O)CCCN(C)C)[C@H](C)CN([C@H](C)CO)C(=O)c2cc(NC(=O)Nc3ccc(C(F)(F)F)cc3)ccc2O1`: “inactive”; for `C[C@H]1CN([C@@H](C)CO)C(=O)c2cc(NC(=O)CCCN(C)C)ccc2O[C@@H]1CN(C)Cc1ccc(Oc2ccccc2)cc1`: “inactive”.

As for `C[C@H](CO)N1C[C@H](C)[C@H](CN(C)S(=O)(=O)c2ccc(Oc3ccccc3)cc2)OCc2cnnn2CCCC1=O`, the growth inhibition call was “inactive”. On to `COc1cccc(C(=O)c2ccccc2)c1`, for which the growth inhibition call is “inactive”.

With `C[C@H](CO)N1C[C@H](C)[C@H](CN(C)Cc2ccc3c(c2)OCO3)Oc2ccc(NS(C)(=O)=O)cc2CC1=O`, the growth inhibition call is “inactive”. The same measure for `C[C@@H]1CCCCO[C@@H](CN(C)Cc2ccncc2)[C@H](C)CN([C@@H](C)CO)C(=O)c2cc(NC(=O)Nc3ccccc3)ccc2O1`: “inactive”. Regarding `Cc1ccc(S(=O)(=O)Nc2ccc3c(c2)C(=O)N([C@H](C)CO)C[C@H](C)[C@H](CN(C)C(=O)Nc2cccc4ccccc24)OCCCC[C@@H](C)O3)cc1`, the growth inhibition call is “inactive”. The same measure for `CC1OC(Oc2c(-c3ccc(O)c(O)c3)oc3cc(O)cc(O)c3c2=O)C(O)C(O)C1O` (stereo unspecified): “inactive”.

For the compound `COc1ccccc1CNC(=O)C[C@H]1CC[C@@H]2[C@H](COC[C@@H](O)CN2C(=O)Nc2ccc(Cl)cc2)O1`, the growth inhibition call was “active”. The same measure for `C[C@@H]1CN([C@H](C)CO)C(=O)Cc2cc(NC(=O)Nc3cccc4ccccc34)ccc2O[C@H]1CN(C)Cc1ccccc1`: “inactive”; for `C[C@@H]1CN([C@@H](C)CO)C(=O)c2cc(NC(=O)Nc3ccc4c(c3)OCO4)ccc2O[C@@H](C)CCCCO[C@@H]1CN(C)CC1CCCCC1`: “inactive”; for `Cc1noc(C)c1S(=O)(=O)N(C)C[C@H]1OCCCC[C@H](C)Oc2ccc(NC(=O)Nc3ccccc3)cc2C(=O)N([C@@H](C)CO)C[C@@H]1C`: “inactive”.
